ChEMBL document CHEMBL1201862, “PubChem BioAssay data set” (2004)
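Growth conditions: 96-well plates. Treatment: test compound, 48 hours, 5 concentrations. Analysis: linear interpolation between bracketing concentrations; unreached endpoints set to highest concentration. Abbreviation: GI50, concentration required for 50% inhibition of growth.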 The source made the active and inactive calls. Cut-off read from the data, not from the text of the source: active = GI50 up to about 1.1 µM and inactive = higher. Bridge positions count the residues as written; N and C are the ends. Square brackets hold non-standard residues; d marks the D form. Peptide text beside a SMILES is read from it. * marks the point of attachment. ξ: configuration not given here. ξNMePhe(4-NMe2) = CNC(Cc1ccc(N(C)C)cc1)C(=O)O; Picolinoyl(3-OH) = O=C(c1ncccc1O)*; ξPip(4-oxo) = O=C1CCNC(C(=O)O)C1; Phg = N[CH](C(=O)O)c1ccccc1; Abu = CC[CH](N)C(=O)O

tested on: NCI-H322M; assay: DTP human tumour cell line panel, 48 h

| SMILES | GI50 |
| --- | --- |
| O=C(NC/C(Cl)=C/Cl)Nc1cccc2c1CCCC2 | inactive: > 100 µM |
| O=C1Cc2c(-c3cccs3)cc(-c3ccccc3)nc2-c2ccccc2N1 | inactive: 34.6 µM |
| COc1ccc(-c2c3c(nc4[nH]c(=S)[nH]c(=S)c24)CCCC3)cc1OC | inactive: 45.7 µM |
| Cc1cc(=O)oc2c(CNC(CC(C)C)C(=O)O)c(O)ccc12 (stereo not given) | inactive: > 100 µM |
| O=C1C=CC=CC2CC=C[C@@H](O)C12 (stereo not given in full) | inactive: 26.4 µM |
| O=C1c2ccccc2C2(c3ccc(Cl)cc3)N[C@H]3CCCC[C@@H]3N12 (stereo not given in full) | inactive: 96.2 µM |
| CCN(CCCl)CCCCNc1c2ccccc2nc2ccc(OC)cc12 | active: 0.789 µM |
| COc1ccc(/N=C(/C[S+]([O-])c2ccc(C)cc2)C(F)(F)F)cc1 (stereo not given) | inactive: > 100 µM |
| Cc1nc2ccccc2c(=O)n1NC(=O)Cc1ccccc1 | inactive: > 100 µM |
| COc1c2nc(CCl)n(C)c(=O)c2c(OC)c2c(=O)n(C)c(CCl)nc12 | inactive: 2.47 µM |
| Cc1ccc(/N=C2\OP(=O)(Nc3ccc(C)cc3)Oc3ccccc32)cc1 (stereo not given) | inactive: > 100 µM |
| COc1cc(CC(=O)c2ccc3c(c2)OCO3)cc(OC)c1OC | inactive: > 100 µM |
| COc1cc2ccnc(-c3n[nH]c4cc(OC)c(OC)cc34)c2cc1OC | inactive: > 100 µM |
| CCSC(=O)N1c2ccc(OC)cc2C=CC1C#N (stereo not given) | inactive: 4.52 µM |
| CC(NC(=O)c1ccc(Cl)c(Cl)c1)c1ccc(-c2ccccc2)cc1 (stereo not given) | inactive: 48 µM |
| CCOC(=O)c1ccc(Nc2c3c(nc4ccccc24)CCCC3)cc1 | inactive: > 100 µM |
| O=C1N/C(=N/N=C\c2ccccc2)N/C1=C/c1ccccc1 | inactive: 34.4 µM |
| CC1=C/C(O)CC(=O)Cc2nc(co2)C(=O)N2CCC=C2C(=O)OC(C(C)C)C(C)/C=C/C(=O)NC\C=C\1.CCC1NC(=O)C(NC(=O)c2ncccc2O)C(C)OC(=O)C(c2ccccc2)NC(=O)C2CC(=O)CCN2C(=O)C(Cc2ccc(N(C)C)cc2)N(C)C(=O)C2CCCN2C1=O (stereo not given) ({Picolinoyl(3-OH)}-T[Abu]P[ξNMePhe(4-NMe2)][ξPip(4-oxo)][Phg]; ester 1-C; configuration not given here) | inactive: 16.7 µM |
| O=c1[nH]c(=O)n(C2OC(CO)C(O)C2O)cc1OCCc1ccccc1 (stereo not given) | inactive: > 100 µM |
| CC(=O)Nc1ccc2c3c(cc(O)c2c1)N(C(=O)CCCCC(=O)N1CC(CCl)c2c1cc(O)c1cc(NC(C)=O)ccc21)CC3CCl (stereo not given) | inactive: 1.66 µM |
| CC1(Cc2cc3c(cc2C2(c4ccc([N+](=O)[O-])cc4)OCCO2)OCO3)OCCO1 | inactive: > 100 µM |
| CC(Cn1c(=O)oc2ccccc21)N(C)C (stereo not given) | inactive: > 100 µM |
| N#Cc1cnc(-n2[nH]c3c(c2=O)CCCC3)[nH]c1=O | inactive: 55 µM |
| O=C1CCCCCCCCCCC1CN1CCCC1 (stereo not given) | inactive: 44.4 µM |

| SMILES | GI50 |
| --- | --- |
| Nc1[nH]nc2ccccc12 | inactive: > 100 µM |
| CSCC[C@H]1C(=O)N=C(N)N1C(=O)OCc1ccccc1 | inactive: > 100 µM |
| COc1ccc(NC(=O)c2oc3cc(O)ccc3c(=O)c2C)c([N+](=O)[O-])c1 | inactive: > 100 µM |
| COc1ccc(Nc2nnc(CCCCCCCCc3nnc(Nc4ccc(OC)cc4)o3)o2)cc1 | inactive: > 100 µM |
| CCSc1n/c(=C\c2ccco2)c2nncn12 | inactive: > 100 µM |
| CC(C#N)N(CCc1ccccc1)C(=O)c1ccccc1 (stereo not given) | inactive: > 100 µM |
| O=C(/C=C/c1cccc([N+](=O)[O-])c1)c1cccnc1 | inactive: > 60.3 µM |
| O=NN(CCCl)C(=O)NCCCl [CARMUSTINE] | inactive: 177 µM |
| CCOC(=O)/C(O)=C1\C(=O)N(C)C(=O)C1c1ccc(OC)c(OC)c1 (stereo not given) | inactive: > 100 µM |
| Cc1nnc2n1-c1ccccc1C(=S)N1CSCC21 (stereo not given) | inactive: > 100 µM |
| CO[C@H]1CC[C@]2(C)C3=CC[C@@]4(C)C(CC[C@@H]4C(C)CC[C@@H](C)C(C)C)C(=CCC2C1)O3 (stereo not given in full) | inactive: > 25 µM |
| COc1ccc([C@H]2CC3C(=O)N(c4ccc(OC)cc4)C(=O)C3c3[nH]c4ccccc4c32)cc1 (stereo not given in full) | inactive: 91.2 µM |
| N#CC1(C#N)N[C@@H](c2ccsc2)[C@H]2C(=O)N(c3ccccc3)C(=O)[C@H]21 | inactive: > 100 µM |
| C/C(=N\N=C1/C(=O)OC(c2ccccc2)=C1C(=O)c1ccccc1)c1ccc([N+](=O)[O-])cc1 | inactive: 91 µM |
| CC(C)=CC1(C)/C(=N\O)C(C)(CC(C)C)C(=O)N1O (stereo not given) | inactive: > 100 µM |
| COc1nc(=O)n(C2CC(F)C(CO)O2)cc1C (stereo not given) | inactive: > 100 µM |
| Cc1cccc(C(C)C)c1NC(=O)/C(Cc1c([N+](=O)[O-])cccc1[N+](=O)[O-])=N/NC(=O)CC#N | inactive: > 100 µM |
| CC1(O)C(C)(O)C(C)(O)C1(C)O (stereo not given) | inactive: > 100 µM |
| CC(C)=CCNc1ncnc2c1ncn2CCC(=O)OC(C)(C)C | inactive: > 100 µM |
| Cc1ccccc1Nc1cn(COCc2ccccc2)c(=O)[nH]c1=O | inactive: > 100 µM |
| O=C1CCC2COc3ccc(O)c1c32 (stereo not given) | inactive: > 100 µM |
| COc1cc2nc(-c3cccs3)nc(N3CCN(c4ccccc4)CC3)c2cc1OC | inactive: > 100 µM |
| CCN(CCCl)c1cc(CN(C)C)cc(NC(=O)c2cc(C(=O)Nc3cc(CN(C)C)cc(N(CC)CCCl)c3)n(C)n2)c1 | active: 0.794 µM |
| O=[N+]([O-])c1cccc2nccc(NCCN3CCOCC3)c12 | inactive: 10.4 µM |

| SMILES | GI50 |
| --- | --- |
| C/C=C1\C[C@@H]2C(OC)Nc3cc(O)c(OC)cc3C(=O)N2C1 (stereo not given in full) | active: 0.014 µM |
| CNc1nnc(CNc2ccc(-c3nnc(NC)n3N)cc2)n1N | inactive: > 100 µM |
| CNc1nc2c(C)ccc3nc(N(C)C)nc-3c2n1C | inactive: > 10 µM |
| CCOC(=O)c1c[nH]c(C(=O)OCC)c1-c1cccn1-c1ccccc1 | inactive: 21.4 µM |
| O=C(/C=C/c1ccc(O)cc1)OC[C@@H](O)COC1OC(CO)C(O)C(O)C1O (stereo not given in full) | inactive: > 100 µM |
| O=C(CSc1nc2ccccc2c(=O)n1-c1ccccc1)N/N=C1\C(=O)Nc2ccc(F)cc21 | inactive: 2.07 µM |
| Oc1ccc(O)c(-n2cccn2)c1-n1cccn1 | inactive: > 100 µM |
| CSc1ccc(OCC2OC2O)cc1 (stereo not given) | inactive: > 100 µM |
| NC(=O)NC(=O)c1cccc(NC(=O)CBr)c1 | active: 0.156 µM |
| Oc1cccnc1/C=N/OCc1ccccc1 | inactive: > 100 µM |
| CSc1ncnc2c1cnn2Cc1cn(COCCO)nn1 | inactive: 31.9 µM |
| CC(C)C1CN1CC(O)Cn1ccnc1[N+](=O)[O-] (stereo not given) | inactive: > 100 µM |
| CC(C)(C)c1ccc(O)c(CN(Cc2cc(C(C)(C)C)ccc2O)C2CCCCC2)c1 | inactive: 16.3 µM |
| O=C1Oc2ccccc2N/C1=C/C(=O)c1ccc([N+](=O)[O-])cc1 | inactive: > 100 µM |
| COC1(OC)CC(CO)(COc2cc(Cl)nc(N)n2)C1 | inactive: > 100 µM |
| O=c1oc(-c2ccccc2)cn1-c1ccccc1 | inactive: > 100 µM |
| C=CCOC(=O)C1=C(C)N=C2N[C@H](CCCCCCCCC)C[C@@H]3CCC1N23 (stereo not given in full) | inactive: 36 µM |
| O=C(NNC(=S)Nc1ccc(Cl)cc1)C12CC3CC(CC(C3)C1)C2 | inactive: 5.45 µM |
| Cc1ncc(C/N=C/c2ccc(Cl)cc2)c(N)n1 | inactive: > 100 µM |
| c1ccc(C2Nc3ccccc3C3OCCCC23)cc1 (stereo not given) | inactive: 13.6 µM |
| CC(C)CC(NC(=O)C(CCI)Cc1ccccc1)C(=O)Nc1ccccc1 (stereo not given) | inactive: > 100 µM |
| C[Si](C)(C)OC1(C#N)c2ccccc2CCCC12CCCC2 (stereo not given) | inactive: > 100 µM |
| CN(C)C(=O)C(F)(F)C(c1ccccc1Br)C1C(=O)N(C)C(=O)N(C)C1=O (stereo not given) | inactive: > 100 µM |
| COc1cccc(-c2nc3c(C(=O)NCCN(C)C)cccc3[nH]2)c1 | inactive: 9.18 µM |

| SMILES | GI50 |
| --- | --- |
| Oc1ccc2c(c1)-c1c(c3ccccc3n1CCN1CCOCC1)CC2 | inactive: 19.4 µM |
| COC(=O)C1=CCS(=O)(=O)C1 | inactive: > 100 µM |
| Cc1cc(-n2nnc(C(=O)O)c2-c2ccccc2)c2ccc(Cl)cc2n1 | inactive: > 100 µM |
| Cc1ccccc1C1CC(=O)CC(c2ccccc2C)C12C(=O)NC(=S)NC2=O (stereo not given) | inactive: 29.6 µM |
| COC12C(COC(=O)NCCO)C3=C(C(=O)C(C)=C(N)C3=O)N1CC1NC12 (stereo not given) | inactive: 42 µM |
| NC(=O)CO/N=C1/C(=C2/C(=O)Nc3ccccc32)Nc2ccccc21 | inactive: 12 µM |
| C=C[C@@H](C)[C@]1(C(=O)OC)CCCC12OCCO2 | inactive: > 100 µM |
| C/C(=N\Nc1nc2cccnc2s1)c1ccccn1 | active: 0.0598 µM |
| O=c1cc(CNC2CC3CCC2C3)[nH]c(=O)[nH]1 (stereo not given) | inactive: > 100 µM |
| O=C1c2sc(-c3ccc(F)cc3)cc2-n2cccc21 | inactive: 22.3 µM |
| O=C(CCCn1ccnc1[N+](=O)[O-])NCCn1ccnc1[N+](=O)[O-] | inactive: > 100 µM |
| Cc1ccc(S(=O)(=O)NC(=O)NC(CC(=O)O)C(=O)O)cc1 (stereo not given) | inactive: > 100 µM |
| CCCCCCCC/C=C(\Br)C(O)C(Br)Br (stereo not given) | inactive: 31 µM |
| OCC(O)C(O)C(C=NNc1ncnc2ccc(Br)cc12)=NNc1ncnc2ccc(Br)cc12 (stereo not given) | inactive: 1.18 µM |
| N#CNc1nc(C(=O)Nc2ccc(Cl)cc2)cc(-c2ccccc2)n1 | inactive: > 100 µM |
| CC(=O)/C(=N\O)C(=O)NCCc1ccccc1 | inactive: > 100 µM |
| CCOC(C)OC1CC(n2cc(C)c(=O)[nH]c2=O)OC1CO (stereo not given) | inactive: > 100 µM |
| COc1ccc2c(c1)[C@@H](NC(C)=O)CCc1cc(OC)c(OC)c(OC)c1-2 | active: 0.0199 µM |
| COC(=O)C1=C(O)C(C(=O)OC)[C@]2(O)[C@H](C(=O)OC)[C@H]1C[C@@H](c1ccc(Cl)cc1Cl)[C@H]2C(=O)OC (stereo not given in full) | inactive: 14.9 µM |
| CC(=O)CN(Cc1cc(C)c2c(c1)c1ccccc1n2Cc1ccccc1)S(=O)(=O)c1ccc(C)cc1 | inactive: > 100 µM |
| CC(C)C[C@H](NC(=O)[C@H](Cc1ccc(F)cc1)NC(=O)c1ccccn1)B(O)O | active: < 0.0103 µM |
| COC(=O)c1[nH]c(=S)[nH]c(=O)c1-c1ccc(Cl)cc1 | inactive: > 50 µM |
| COc1ccc(N[S+]([O-])c2cccc(C)c2)cc1 (stereo not given) | inactive: 75.9 µM |
